# Counter-ions that a name gives are not always drawn. The list shows a part of the results. Cut-off read from the data, not from the text of the source: active = 0.5 or less and inactive = the rest. Repeats are few or missing, and single values can be far off.
# What was measured:
# Conditions in all cases: 50 µM; 24 h
# [1] = test system: HeLa VPS33A reporter cells; assay: relative cell viability (CellMask signal) vs DMSO (fraction of DMSO); higher = less cytotoxic;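 note: primary screen of an FDA-approved drug library in HeLa reporter cells in 96-well format, CellMask signal normalized to DMSO-treated wells set as 1, under 0.5 deemed highly cytotoxic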
# [2] = test system: HeLa VPS33A R498W KI + HA-SDC1-FLAG; assay: relative GAG core protein HA-SDC1 amount per cell number vs DMSO (fraction of DMSO); higher = more SDC1 (GAG core protein);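 note: HA-SDC1 level read out by In-Cell Western staining with an anti-HA antibody against the N-terminal tag, screening FDA-approved library drugs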
# [3] = test system: HeLa VPS33A KO + NLuc-VPS33A R498W; assay: relative mutant VPS33A R498W amount (NanoLuc luminescence) vs DMSO (fraction of DMSO); HeLa model of a glycosaminoglycan (GAG) storage disease; KI is knock-in and KO knock-out; SDC1 is syndecan 1; higher = higher mutant VPS33A level;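 note: screen of an FDA-approved drug library, NanoLuc luminescence read after lysing the treated cells, taken as a measure of mutant VPS33A protein stability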
SMILES,relative cell viability [1],relative GAG core protein HA-SDC1 amount per cell number [2],relative mutant VPS33A R498W amount [3]
O=NO [Sodium Nitrite],0.997,inactive: 0.782,1.32
CCN(CC)CCOC(=O)c1ccc(N)cc1 [Procaine],0.978,inactive: 0.916,1.33
O=C(O)/C=C(/CC(=O)O)C(=O)O [cis-aconitate],0.982,inactive: 0.924,1.38
CC=CC1=C(C(=O)O)N2C(=O)[C@@H](NC(=O)[C@H](N)c3ccc(O)cc3)[C@H]2SC1 [Cefprozil],1.02,inactive: 1.06,1.13
C=C[C@@H]1C[C@]1(NC(=O)[C@@H]1C[C@@H]2CN1C(=O)[C@H](C(C)(C)C)NC(=O)O[C@@H]1C[C@H]1CCCCCc1nc3ccc(OC)cc3nc1O2)C(=O)NS(=O)(=O)C1CC1,0.653,active: 0.428,0.604
O=C1c2c(O)cc(O)cc2OC(c2ccc(O)c(O)c2)C1O (stereo not drawn) [Taxifolin],1.02,inactive: 1.02,0.765
COc1ccccc1N1CCN(CCCNc2cc(=O)n(C)c(=O)n2C)CC1 [Urapidil HCl],1,inactive: 1.02,1.48
CCC[C@@H]1C[C@@H](C(=O)N[C@@H]([C@H]2O[C@H](SC)[C@H](O)[C@@H](O)[C@H]2O)[C@H](C)Cl)N(C)C1 [Clindamycin],1.03,inactive: 0.94,1.15
Cc1cn(-c2cc(NC(=O)c3ccc(C)c(Nc4nccc(-c5cccnc5)n4)c3)cc(C(F)(F)F)c2)cn1 [Nilotinib monohydrochloride monohydrate],1.09,inactive: 1.28,0.904
CC(=O)N(CC(O)CO)c1c(I)c(C(=O)NCC(O)CO)c(I)c(C(=O)NCC(O)CO)c1I (stereo not drawn) [Iohexol],0.967,inactive: 0.917,1.35
CC[C@H](c1ccc(O)cc1)[C@@H](CC)c1ccc(O)cc1 [Hexestrol],1.21,inactive: 0.813,0.0555
COCCc1ccc(OCC(O)CNC(C)C)cc1 (stereo not drawn) [Metoprolol Succinate],0.989,inactive: 1.08,0.922
CCOC(=O)Nc1ccc(NCc2ccc(F)cc2)nc1N [Flupirtine maleate],1.18,inactive: 0.746,0.982
C=CCNC(N)=S [Allylthiourea],0.962,inactive: 0.869,1.32
O=C1[C@H](CC[C@H](O)c2ccc(F)cc2)[C@@H](c2ccc(O)cc2)N1c1ccc(F)cc1 [Ezetimibe],1.05,active: 0.433,0.559
CNC1(C)C2CCC(C2)C1(C)C (stereo not drawn) [Mecamylamine hydrochloride],1.23,inactive: 0.767,1.13
COc1cc(O)c2c(c1)oc(=O)c1c3cc(O)c(O)cc3oc21 [Wedelolactone],0.723,active: 0.183,1.38
CC(C)NCC(O)c1ccc(NS(C)(=O)=O)cc1 (stereo not drawn) [Sotalol],1.16,inactive: 0.956,1.32
CNS(=O)(=O)Cc1ccc2[nH]cc(CCN(C)C)c2c1 [Sumatriptan],1.01,inactive: 1.04,1.26

SMILES,relative cell viability [1],relative GAG core protein HA-SDC1 amount per cell number [2],relative mutant VPS33A R498W amount [3]
COc1ccc(CN(CCN(C)C)c2ccccn2)cc1 [Mepyramine maleate],1.13,inactive: 0.78,1.01
CC(C)[C@H](N)C(=O)OCC(CO)OCn1cnc2c(=O)[nH]c(N)nc21 (stereo partly drawn) [Valganciclovir HCl],1.08,inactive: 0.926,1.65
COc1cc2nccc(Oc3ccc(NC(=O)C4(C(=O)Nc5ccc(F)cc5)CC4)cc3)c2cc1OC,1.22,inactive: 1.17,1.07
CC(C)[C@H](N)C(=O)OCCOCn1cnc2c(=O)nc(N)[nH]c21 [Valaciclovir HCl],0.992,inactive: 0.82,1.35
O=C1Cc2cc(CCN3CCN(c4nsc5ccccc45)CC3)c(Cl)cc2N1 [Ziprasidone hydrochloride monohydrate],1.08,inactive: 0.961,1.11
OC(CCCN1CCCCC1)(c1ccccc1)c1ccccc1 [Diphenidol HCl],1.03,inactive: 0.736,0.807
CN(C)CCC=C1c2ccccc2COc2ccccc21 [Doxepin (hydrochloride)],0.93,inactive: 0.633,0.788
CC[C@@H]([C@H](C)O)n1ncn(-c2ccc(N3CCN(c4ccc(OC[C@@H]5CO[C@@](Cn6cncn6)(c6ccc(F)cc6F)C5)cc4)CC3)cc2)c1=O [Posaconazole],1.16,inactive: 1.24,1.1
O=C(O)CCCN1CCC(O[C@@H](c2ccc(Cl)cc2)c2ccccn2)CC1 [Bepotastine Besilate],1.05,inactive: 1.5,2.25
N#C/C(=C1/SC[C@@H](c2ccc(Cl)cc2Cl)S1)n1ccnc1 [Luliconazole],1.1,inactive: 1.31,0.567
CNC(=O)c1ccc(N2C(=S)N(c3cnc(C#N)c(C(F)(F)F)c3)C(=O)C23CCC3)cc1F,1.38,inactive: 1.49,0.773
Cc1[nH]c(=O)c(C#N)cc1-c1ccncc1 [Milrinone],1.24,inactive: 0.926,0.969
O=C(O)CCC(=O)O [Butane diacid],0.942,inactive: 0.698,1.24
CC(=O)[C@@]1(O)CC[C@H]2[C@@H]3C[C@H](C)C4=CC(=O)C=C[C@]4(C)[C@@]3(F)[C@@H](O)C[C@@]21C [Fluorometholone],1,inactive: 1.14,1.37
Oc1ccc(C2CNCCc3c2cc(O)c(O)c3Cl)cc1 (stereo not drawn) [Fenoldopam],0.948,inactive: 0.856,1.35
CC[C@]1(O)C[C@H]2CN(CCc3c([nH]c4ccccc34)[C@@](C(=O)OC)(c3cc4c(cc3OC)N(C=O)[C@H]3[C@@](O)(C(=O)OC)[C@H](OC(C)=O)[C@]5(CC)C=CCN6CC[C@]43[C@@H]65)C2)C1 [Vincristine],0.907,active: 0.412,0.437
COc1cc2ccc(=O)oc2cc1O [Scopoletin],0.98,inactive: 0.811,1.16
CC(=O)NC[C@H]1CN(c2ccc(N3CCOCC3)c(F)c2)C(=O)O1 [Linezolid],1.01,inactive: 1.21,1.25
CC(c1cc2ccccc2s1)N(O)C(N)=O (stereo not drawn) [Zileuton],1.01,inactive: 1.11,1.15

SMILES,relative cell viability [1],relative GAG core protein HA-SDC1 amount per cell number [2],relative mutant VPS33A R498W amount [3]
NCCCNCCCCNCCCN [Spermine tetrahydrochloride],1.06,inactive: 1.09,1.13
CO[C@H]1O[C@@H]2O[C@@]3(C)CC[C@H]4[C@H](C)CC[C@@H]([C@H]1C)[C@@]24OO3 [Artemether*],0.778,active: 0.369,0.718
N[C@@H](CC(=O)O)C(=O)O [L-Aspartic acid],1.05,inactive: 0.761,0.979
O=C(O)c1cccc(-c2noc(-c3ccccc3F)n2)c1 [PTC124 (Ataluren)],1.19,inactive: 1.17,0.902
CC(=O)O[C@]1(C(C)=O)CC[C@H]2[C@@H]3C=C(C)C4=CC(=O)CC[C@]4(C)[C@H]3CC[C@@]21C [Megestrol Acetate],1.14,inactive: 1.25,1.36
O=S(=O)(O)Oc1ccc(C(c2ccc(OS(=O)(=O)O)cc2)c2ccccn2)cc1 [Sodium Picosulfate],0.974,inactive: 0.902,1.21
O=C(O)/C=C/c1ccccc1 [Cinnamic acid],1.12,inactive: 0.818,1.22
O=c1c(O)c(-c2ccc(O)c(O)c2)oc2cc(O)cc(O)c12 [Quercetin dihydrate],1.03,inactive: 1.12,0.36
NC(=O)[C@@H]1CC[C@@H]2CN1C(=O)N2OS(=O)(=O)O [Avibactam sodium],1.07,inactive: 0.865,1.37
CCCCCCCCCCCCCCCCCC(=O)O [Stearic Acid],0.987,inactive: 0.87,1.96
CC(C)(C)NC(=O)N[C@H](C(=O)N1C[C@H]2[C@@H]([C@H]1C(=O)NC(CC1CCC1)C(=O)C(N)=O)C2(C)C)C(C)(C)C (stereo partly drawn) [Boceprevir],0.862,active: 0.375,0.825
C[C@@H](c1nc(-c2ccc(C#N)cc2)cs1)[C@](O)(Cn1cncn1)c1cc(F)ccc1F [Isavuconazole],1.08,inactive: 0.6,0.761
Nc1ccc(S(=O)(=O)Nc2ccccn2)cc1 [Sulfapyridine],1.07,inactive: 0.734,1.13
COc1c(O)cc2c(c1O)[C@@H]1O[C@H](CO)[C@@H](O)[C@H](O)[C@H]1OC2=O [Bergenin],1.02,inactive: 0.783,1.18
CC(=O)Nc1nnc(S(N)(=O)=O)s1 [Acetazolamide],1.12,inactive: 0.97,1.28
CC[C@H](C)[C@H](N)C1=N[C@H](C(=O)N[C@@H](CC(C)C)C(=O)N[C@H](CCC(=O)O)C(=O)N[C@H](C(=O)N[C@H]2CCCCNC(=O)[C@H](CC(N)=O)NC(=O)[C@@H](CC(=O)O)NC(=O)[C@H](Cc3cnc[nH]3)NC(=O)[C@@H](Cc3ccccc3)NC(=O)[C@H]([C@@H](C)CC)NC(=O)[C@@H](CCCN)NC2=O)[C@@H](C)CC)CS1 [Bacitracin],1.12,inactive: 2.06,0.75
Cc1oc(=O)oc1CN1CCN(c2cc3c(cc2F)c(=O)c(C(=O)O)c2n3C(C)S2)CC1 (stereo not drawn) [Prulifloxacin (Pruvel)],0.957,inactive: 0.692,0.854
CC[N+](CC)(CC)CCOc1cccc(OCC[N+](CC)(CC)CC)c1OCC[N+](CC)(CC)CC [Gallamine Triethiodide],1.11,inactive: 0.684,1.17
